# Measured values taken from the supplement of paper PMC4466236.
# Over roughly 33,000 sequences, “E-score (dimensionless, -0.5 to 0.5)” has its median near -0.058; the highest 2% begin near 0.35. Some of the results follow.
# System: MvaT
# Experiment: PBM 8-mer E-score (mean of HK and ME arrays) (E-score (dimensionless, -0.5 to 0.5)); higher = stronger relative binding preference; most listed sequences are background and not binding sites
# Method: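 Protein binding microarray: GST-tagged full-length MvaT (P. aeruginosa PAO1) bound to two universal double-stranded 60-mer arrays (ME and HK), each with a constant 25-mer primer and a variable 35-mer region covering all 8-mers. The 8-mer E-score (rank-based, range -0.5 to 0.5, >0.45 = specific binding) is the mean of the two arrays.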
row,Sequence,PBM 8-mer E-score
1,AAAGAAAA,0.215
2,GTAATAGA,0.164
3,ATTCTAAC,0.154
4,GCTTACGA,-0.023
5,CAATAGCA,0.114
6,ACTACGCC,-0.129
7,ATAACATC,0.302
8,AATTTACA,0.269
9,AGTATACG,0.185
10,CCCCTTAC,-0.254
11,TGCGCCAA,0.114
12,CGGGGTCA,-0.246
13,CCTGGGAC,-0.214
14,ACTGGGTC,-0.145
15,TGGCGCCA,-0.352
16,GGAAAGAA,0.0435
17,ATGGTATA,0.249
18,CCCTCCCA,-0.169
19,AACAAGTA,0.343
20,AACCTCTG,-0.274
21,AGACAGCG,-0.185
22,GTCGGTAA,-0.0268

row,Sequence,PBM 8-mer E-score
1,GTTGCGAA,-0.00171
2,TCGGGCAA,-0.0605
3,AGTCGGCC,-0.23
4,GGGTTTAA,0.187
5,ATATAAAC,0.433
6,CGCACGGC,-0.246
7,ATGATTAC,0.206
8,GAGGAATC,-0.0683
9,AATAACCA,0.265
10,AATACAAC,0.316
11,CTTACCAC,-0.14
12,TAGATATA,0.368
13,ACATTCAG,0.127
14,AGCCAGTA,-0.0101
15,AAATAAAA,0.419
16,AAACGAGT,0.0937
17,AACGATGC,-0.0999
18,AGTTTCAA,0.177
19,CTCAATGC,-0.14
20,ATGTTGAA,0.196
21,CCGTGCCC,-0.184
22,AGCTCCTC,-0.303

row,Sequence,PBM 8-mer E-score
1,TCCACGAA,-0.0307
2,CATGAGGA,-0.201
3,CCCCACGA,-0.139
4,GACATTAA,0.222
5,CGTGAAAC,-0.0856
6,ACAATGAT,0.234
7,GTGAGGAA,-0.0156
8,ACGCAAAT,0.0432
9,CGACTTGC,-0.238
10,TACAGCTA,-0.123
11,ACAGGATC,-0.123
12,ACGTTTAG,-0.00724
13,GCCAATTA,0.0866
14,CGTGTGTC,-0.228
15,ATGCTTCG,-0.069
16,CGGGACTA,-0.0357
17,AAAATATG,0.251
18,GAAACGAA,0.0408
19,CTCACGTC,-0.216
20,CGAAGGGC,-0.24
21,CCCAATTA,0.271
22,CCACATGA,-0.161

row,Sequence,PBM 8-mer E-score
1,GAAGTGAC,0.0462
2,AGGAAACT,-0.0294
3,ACCCTATA,0.129
4,ATTCCATC,-0.0422
5,CTTATCAC,0.0776
6,GGATGCGA,-0.256
7,GGCCTTAC,-0.0545
8,CGGGCGGA,-0.237
9,AAAGATAA,0.274
10,CAGGACCG,-0.234
11,CTACAGGA,-0.126
12,AAATGATC,0.0521
13,CGGGCTCC,-0.173
14,ACGTATAT,0.29
15,CCCGAAAC,-0.161
16,TGCCGACA,-0.122
17,CCATTGTA,0.134
18,TACAAGCA,0.0373
19,AATGCACT,0.0117
20,TGATGCAA,0.036
21,GACAAACA,0.174
22,ATCTGGTC,-0.0486

row,Sequence,PBM 8-mer E-score
1,GTCTAGAA,-0.163
2,TATTTAGA,0.308
3,CTGAAGGC,-0.394
4,CATCCCCG,-0.178
5,CAAAATTC,0.0693
6,ACCCGGAA,-0.0434
7,GAAAGTCA,-0.0606
8,AAAGCCCA,-0.231
9,AAGAATTA,0.295
10,ATGATAGC,-0.0294
11,TCACGAGA,-0.131
12,CACTCCTG,-0.121
13,ACTGAAGC,-0.224
14,ACAATAAT,0.401
15,CGACCTCG,-0.227
16,AGCCGCAA,-0.0521
17,CCGCTTTC,-0.181
18,GCACCAGA,-0.178
19,ATAGTCAG,0.0889
20,CAAACGCG,-0.0844
21,GGGCTTCA,-0.28
